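All cell lines were grown in 96-well plates and treated with compound for 48 hours. GI50 = concentration required for 50% inhibition of growth.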 The source made the active and inactive calls. Rule as the data show it: active = GI50 up to about 1.1 µM and inactive = higher. A value given as a limit tells only on which side of the number the result lay.

The subject of this assay is NCI-H322M. Nature of the assay: growth of human tumour cells (NCI), 48 h.
Regarding `CN1C(=O)C(=CNc2ccccc2[N+](=O)[O-])C(=O)N(C)C1=O`, the GI50 was inactive: > 100 µM.
As for `NC(=O)c1csc(-c2ccc(CO)o2)n1`, the GI50 was inactive: > 100 µM.
In the case of `COc1cc(C2c3cc4c(cc3OC(C)(N3CCCC3)C2C)OCO4)cc(OC)c1OC` (centres undefined) it was active: 0.313 µM.
As for `O=C(O)CCCSc1nc2ccccc2s1`, the figure is inactive: > 100 µM; as for `CC(=O)c1c(C)[n+]([O-])c2cc(Cl)c(Cl)cc2[n+]1[O-]`, inactive: 20.6 µM; as for `NC1CC(=O)c2cscc21` (centres undefined), inactive: > 100 µM.
For the compound `CCCCn1c(C)c(C(=O)OCC)s/c1=N/Nc1nc2ccccc2nc1-c1ccccc1`, the GI50 is inactive: > 100 µM.
In the case of `O=C1c2ccccc2C2C1N2C(=O)C(F)(F)F` (centres undefined), the GI50 is inactive: > 100 µM.
As for `COc1c(-c2nc3ccc(N4CCN(C)CC4)nc3[nH]2)cc(OC)c2c1nc(CCl)n2C`, the figure is inactive: 28.6 µM; as for `CC1(OCc2ccccc2)C(=O)N2C1NCC2(C)C` (centres undefined), inactive: > 100 µM.
In the case of `O=C(CC(=O)C(=O)CC(=O)OCc1ccccc1)OCc1ccccc1` it was inactive: > 100 µM.
On to `O=c1c2cc(S(=O)(=O)Nc3ccc(Cl)cc3Cl)ccc2ncn1NS(=O)(=O)c1cccc2ccccc12`, for which the GI50 was inactive: 33.8 µM.
In the case of `CCCNC1=C(C)C(=O)C2=C(C1=O)[C@H](COC(N)=O)[C@]1(OC)[C@@H]3N[C@@H]3CN21` it was inactive: 4.19 µM.
As for `O=c1c2ncn(CCCl)c2n(-c2ccccc2)c(=S)n1-c1ccccc1`, the figure is inactive: > 100 µM; as for `COc1cc(/C=C2\C(=O)N(c3ccc(NC(C)=O)cc3)C(c3ccccc3)S2(=O)=O)cc(OC)c1OC` (centres undefined), inactive: > 100 µM.
For `Cc1cc(C)c2c(c1)CC1(Cc3c(ccc(C)c3C)C1=O)C2=O` (centres undefined), the GI50 is inactive: 84.7 µM.
Take `CCOC(=O)C(NC(=O)CC)(Nc1ccc(S(=O)(=O)Nc2ccc(OC)nn2)cc1)C(F)(F)F` (centres undefined): the GI50 was inactive: > 100 µM.
Consider `COC(=O)c1ccccc1C1CN=NC12Cc1c(C)cc(C)cc1C2=O` (centres undefined), for which the GI50 was inactive: 77.1 µM.
Regarding `NCC(=O)NC(CCCC(NC(=O)CN)P(=O)(O)O)P(=O)(O)O` (centres undefined), the GI50 is inactive: > 100 µM.
Consider `CC1OC23CCCCC2C(C#N)(C#N)C1(C#N)C(=N)O3` (centres undefined), for which the GI50 is inactive: 69.7 µM.
As for `O=C(/C=C/c1cc(Cl)cc(Cl)c1O)c1cccc(O)c1`, the figure is inactive: 43.8 µM; as for `Cc1ccc(S(=O)(=O)N2CCN(C=S)CC2)cc1`, inactive: > 100 µM.
As for `Nc1nc(Cl)c(C=O)c(NCC2(CO)CCC2)n1`, the figure is inactive: 24 µM; as for `COc1ccc2oc(C(=O)O)c3c2c1CCC3CCC(=O)O` (centres undefined), inactive: > 100 µM; as for `COc1ccccc1NC(=O)C(C#N)=C(SC)SC`, inactive: > 100 µM.
As for `O=C(NN1C(=O)/C(=C/c2ccc(Cl)cc2)N=C1c1ccccc1)c1c(Cl)c(Cl)c(Cl)c(Cl)c1-c1nc2ccccc2[nH]1`, the figure is inactive: 24.8 µM; as for `Cc1ccc(/C=C2\NC(=S)N(CN3CCCCC3)C2=O)cc1`, inactive: > 100 µM; as for `S=c1[nH]nc(Cc2ccccc2)c(=S)[nH]1`, inactive: > 100 µM.
Regarding `CC1C(c2ccccc2)OP(=O)(OC(C#N)c2ccccc2)N1C` (centres undefined), the GI50 was inactive: > 100 µM.
As to `COc1ccc2c(c1)CN1C(=N2)CSC1c1cc([N+](=O)[O-])ccc1Cl` (centres undefined), the GI50 was inactive: 33.5 µM.
`[O-][n+]1cn[n+]([O-])c2ccccc21`: the GI50 is inactive: > 100 µM.
As for `COC(=O)[C@@H]1[C@H](OC(C)=O)CCC2[C@@]3(C[C@@H](c4ccoc4)O[C@@H]3OC)[C@H](C)CC[C@]21C(=O)OC` (some centres undefined), the figure is inactive: > 25 µM; as for `COC(=O)c1ccccc1C1CN=NC12Cc1cc(C)ccc1C2=O` (centres undefined), inactive: > 100 µM.
As for `COc1cc(/C=C2\Sc3scc(-c4cccc([N+](=O)[O-])c4)[n+]3C2=O)cc(OC)c1OC`, the figure is inactive: 24.9 µM; as for `CCOP(=O)(OCC)C1CC(O)C(=O)N1` (centres undefined), inactive: > 100 µM.
In the case of `CCOC(=O)c1c(N2CCCC2)nsc1Nc1ccccc1` it was inactive: > 100 µM.
As for `CCCNC(=S)NNC(=O)CSc1nc(-c2ccccc2)c(-c2ccccc2)[nH]1`, the GI50 is inactive: 60.4 µM.
In the case of `COC1C(OC(=O)c2ccc(C)[nH]2)C(O)C(Oc2ccc3c(O)c(NC(=O)c4c[nH]c(C(=O)Nc5c(O)c6ccc(OC7OC(C)(C)C(OC)C(OC(=O)c8ccc(C)[nH]8)C7O)c(C)c6oc5=O)c4C)c(=O)oc3c2C)OC1(C)C` (centres undefined) it was inactive: 2.8 µM.
Take `COC(OC)[C@@H]1OC[C@H](n2cnc3c(N)ncnc32)[C@H]1O`: the GI50 is inactive: > 100 µM.
`COC(=O)C1(C)C=C(Nc2ccccc2)C(=O)N1c1ccccc1` (centres undefined): the GI50 is inactive: > 100 µM.
As for `O=C(CCc1ccccc1)On1nnc2ccccc2c1=O`, the figure is inactive: > 100 µM; as for `NS(=O)(=O)c1ccc(Nc2c3ccccc3nc3c(C(=O)N4CCN(CCO)CC4)cccc23)cc1`, inactive: > 100 µM; as for `CCCCCCCCCC/C=C/CC(=O)SCCNC(=O)CCNC(=O)[C@@H](O)C(C)(C)COP(=O)(O)OP(=O)(O)OCC1OC(n2cnc3c(N)ncnc32)C(O)C1OP(=O)(O)O` (some centres undefined), inactive: > 10 µM.
In the case of `COC(=O)c1cc2/c(=N/O)c3ccccc3sc2o1` it was inactive: > 100 µM; in that of `Cc1nnc2n1N=C(c1ccccc1)C(c1ccccc1)S2` (centres undefined), inactive: 41.5 µM.
As for `COc1ccc(C2(CN(C)C)COc3cc(OC)c(OC)cc3C2=O)cc1OC` (centres undefined), the figure is inactive: > 100 µM; as for `Cn1c(-c2ccccc2)cc(-c2ccc3c(c2)OCO3)c1-c1ccsc1`, inactive: > 100 µM; as for `COC(=O)C1CC2c3c(c4ccccc4n3C)CC(C1=O)N2C` (centres undefined), inactive: 84.3 µM.
As for `Cc1c(C)c(CC(=O)N2CC2)c(C)c(C)c1CC(=O)N1CC1`, the GI50 was inactive: 20.1 µM.
For the compound `O=c1c2cc(Cl)cc(Cl)c2oc2nc3n(c(=O)c12)CCCS3`, the GI50 was inactive: > 100 µM.
Take `Cc1cccc(C)c1NC(=O)C(=O)C1C(=O)NC(=O)NC1=O`: the GI50 is inactive: > 100 µM.
In the case of `O=C(c1ccccc1)c1ccc2c(c1)nc1n2C(c2c(Cl)cccc2Cl)SC1` (centres undefined) it was inactive: > 100 µM.
For `c1sc(NC2=NCCO2)c2c1CCCC2`, the GI50 was inactive: > 100 µM.
With `CC(C)=CC(=O)O[C@@H]1CC(C)(C)CC2C3=CCC4[C@]56CC[C@](O)(OC5)C(C)(C)C6CC[C@@]4(C)C3(C)CC[C@]21C(=O)O` (some centres undefined), the GI50 is inactive: 89.5 µM.
As to `COc1ccc(C2Oc3c(cc(O)c(OC)c3C)[C@@H]2C)cc1OC` (some centres undefined), the GI50 was inactive: > 100 µM.
In the case of `COc1ccc2c(CC(=O)O)cc(=O)oc2c1` it was inactive: > 100 µM; in that of `C[n+]1ccc(Nc2ccc(NC(=O)c3ccc(Nc4cc[n+](C)c5ccc([N+](=O)[O-])cc45)cc3[N+](=O)[O-])cc2)cc1`, inactive: > 100 µM; in that of `Clc1ccc2c(NCCNC3CCCCC3)ccnc2c1`, inactive: 10.8 µM.
As for `Cc1c2cc[n+](C)cc2c(C)c2c1[nH]c1ccc(OCC(F)(F)F)cc12`, the GI50 was inactive: 7.76 µM.

The values above are taken from ChEMBL document CHEMBL1201862, “PubChem BioAssay data set” (2004).
